From article PMC4336329 (PLoS ONE, 2015)
The whole screen tested about 310,000 compounds, of which about 14,000 (4.5%) showed an effect of 50% or more. The effect is printed as a negative number. The list shows a part of the results.

Target: human ether-à-go-go-related gene (hERG) potassium channel (human, UniProt Q12809)
Test: primary screen, population patch clamp on CHO cells stably expressing hERG
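Further: peak tail current of the secondary pulse compared with the same well before compound.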

human ether-à-go-go-related gene (hERG) potassium channel, sequence (Q12809 whole entry, looked up): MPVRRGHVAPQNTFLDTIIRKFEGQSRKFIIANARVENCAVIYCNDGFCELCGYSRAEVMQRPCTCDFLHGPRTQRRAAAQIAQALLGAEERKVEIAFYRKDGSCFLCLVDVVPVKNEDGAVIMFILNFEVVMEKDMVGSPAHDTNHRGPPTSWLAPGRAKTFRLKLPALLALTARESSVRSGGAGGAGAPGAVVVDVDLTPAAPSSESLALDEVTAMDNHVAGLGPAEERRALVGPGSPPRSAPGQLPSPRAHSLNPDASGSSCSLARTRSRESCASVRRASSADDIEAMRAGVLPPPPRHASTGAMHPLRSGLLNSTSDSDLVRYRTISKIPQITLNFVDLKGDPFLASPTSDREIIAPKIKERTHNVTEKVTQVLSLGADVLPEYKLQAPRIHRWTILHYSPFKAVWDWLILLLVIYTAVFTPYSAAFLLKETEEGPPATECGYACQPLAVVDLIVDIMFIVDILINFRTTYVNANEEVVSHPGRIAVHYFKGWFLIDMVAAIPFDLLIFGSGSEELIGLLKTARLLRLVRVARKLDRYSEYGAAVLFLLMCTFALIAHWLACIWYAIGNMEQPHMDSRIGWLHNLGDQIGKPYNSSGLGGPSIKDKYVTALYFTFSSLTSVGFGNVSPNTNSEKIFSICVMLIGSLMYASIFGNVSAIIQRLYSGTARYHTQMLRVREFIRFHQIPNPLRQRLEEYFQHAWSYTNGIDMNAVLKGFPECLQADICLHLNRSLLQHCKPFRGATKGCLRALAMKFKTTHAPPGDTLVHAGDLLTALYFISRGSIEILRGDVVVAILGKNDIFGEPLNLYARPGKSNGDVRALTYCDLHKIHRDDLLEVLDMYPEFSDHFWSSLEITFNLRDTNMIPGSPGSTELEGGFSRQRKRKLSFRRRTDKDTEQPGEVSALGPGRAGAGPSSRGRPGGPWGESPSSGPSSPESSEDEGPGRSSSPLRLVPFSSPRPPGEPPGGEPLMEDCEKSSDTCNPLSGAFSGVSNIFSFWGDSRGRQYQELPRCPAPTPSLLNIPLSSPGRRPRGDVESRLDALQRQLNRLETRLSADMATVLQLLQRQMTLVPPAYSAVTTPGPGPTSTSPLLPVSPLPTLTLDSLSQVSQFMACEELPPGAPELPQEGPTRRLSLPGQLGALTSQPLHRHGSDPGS

SMILES	hERG current change (%, negative = inhibition) at 10uM
Cc1ccc(NC(=O)C2CCCO2)cc1[N+](=O)[O-] (centres unmarked)	-6.23%
NC(=O)CSc1nnc(Cn2c(=O)sc3ccccc32)n1-c1ccccc1	-2.13%
COc1ccc(Cc2nnc(SCc3nc4ccccc4c(=O)[nH]3)o2)cc1	9.59%
Cc1cc(/C=N/NC(=O)C(=O)NCc2ccccn2)c(C)n1-c1ccccc1	-14.4%
CCOC(=O)C(C(=O)OCC)C(C(=O)OCC)N1CCOCC1 (centres unmarked)	6.49%
COc1cccc(OCc2nc3c4cnn(-c5ccccc5)c4ncn3n2)c1	10.6%
COc1cc(C(=O)Nc2ccc([N+](=O)[O-])cn2)cc(OC)c1OC	-3.7%
O=C(O)c1ccc(S(=O)(=O)Nc2ccc(O)c(Sc3nc4ccccc4s3)c2)cc1	23.4%
Clc1ccc(CN2CCN(/N=C/c3cccnc3)CC2)cc1	-17.2%
COC(=O)c1ccc(N2CCN(c3ccccc3)CC2)nc1	-0.407%
Cc1cccc(Cn2nc(-n3cccc3)c3c(C)cc(C)nc32)c1	14.8%
C=CCN(c1ccccc1)S(=O)(=O)c1ccc2[nH]cc(C(=O)NCCOC)c(=O)c2c1	6.89%
COc1ccc(/[N+]([O-])=C/c2ccco2)cc1	11.9%
Cc1cc(C)cc(NC(=S)N2CCC(NC(=O)c3ccc(F)cc3)CC2)c1	11.5%
CCOC(=O)c1cc(C(=O)Nc2cccc(C)c2)nn1C	9.84%
CCC(C)NC(=O)CNC(=O)c1nn(-c2ccc(OC)cc2OC)c(=O)c2ccccc12 (centres unmarked)	24.1%
CCCCCCOC(=O)Cc1c(C)nc(-c2ccccc2)[nH]c1=O	-5.35%
CCc1ccc(NC(=O)CNC(=O)[C@@H]2Cc3ccccc3CN2)cc1	-19.9%
C/C(=N\NC(=O)COc1ccc(C)cc1C(C)C)c1cc2ccccc2o1	7.44%

SMILES	hERG current change (%, negative = inhibition) at 10uM
COc1ccc(CC(=O)N/N=C/C=C/c2cccc([N+](=O)[O-])c2)cc1OC	-14.8%
Cc1ccc([C@H]2C(C#N)=C(N)Oc3cc(C)oc(=O)c32)o1	12.5%
O=C(Nc1ccc(Cc2ccncc2)cc1)C1CC1	5.9%
C/C(=N/NS(=O)(=O)c1ccc(Cl)cc1)c1ccncc1	-10.1%
Cc1cc(C)nc(Nc2ccccc2F)n1.Cl	13.6%
Cc1cccn2c(=O)c3cc(S(=O)(=O)c4ccc(Br)cc4)c(=N)n(C4CCCCC4)c3nc12	18.6%
O=C(COC(=O)Cc1ccsc1)Nc1ccc(Cl)c(S(=O)(=O)N2CCOCC2)c1	-32.9%
CC(NS(=O)(=O)c1ccc(Br)cc1)C(=O)NC1CCCCCC1 (centres unmarked)	5.35%
COc1cc2c(cc1OC)C(c1ccc3c(c1)OCO3)C1=C(CC(C)(C)CC1=O)N2 (centres unmarked)	-12.2%
Cc1ccccc1CNC(=O)c1ccccc1C	4.19%
Cc1ccc(/C=C(/C#N)c2nc(CCN3C(=O)c4ccccc4C3=O)cs2)cc1	21.6%
O=C(CSc1nnc(NC(=O)c2ccc(F)cc2)s1)NC1CCCC1	2.36%
Cc1[nH]c(C(=O)O)c(C)c1C(=O)OC(C)C	-7.42%
O=[N+]([O-])c1ccc(NC(=S)N2CCc3ccccc32)cc1	-2.01%
Cc1cccc(-n2nc3c(c2NC(=O)CCCl)CSC3)c1	-10.1%
COC(=O)c1ccc(/C=N/N2CCN(Cc3ccccc3)CC2)cc1	-0.0709%
O=C(NCCSCc1ccccc1)c1cc(S(=O)(=O)N2CCOCC2)ccc1F	-21.3%
CC(C)CCNC(=O)[C@H](CC(C)C)NC(=O)[C@H]1O[C@@H]1C(=O)O	30.7%
O=C(O)C(=O)O.O=C(c1ccncc1)N1CCN(C2CCCCC2)CC1	-23.4%

SMILES	hERG current change (%, negative = inhibition) at 10uM
O=C(COc1ccccc1)N=C1SC2CS(=O)(=O)CC2N1c1ccc(F)cc1 (centres unmarked)	15.3%
Cc1ccc(NS(=O)(=O)c2cccc3cccnc23)c(Cl)c1	7.81%
Cc1cccc(NC(=O)CSc2nc(N)c(NC(=O)c3cccs3)c(=O)[nH]2)c1C	6.28%
COc1ccc(S(=O)(=O)N(C)CC(=O)NCCC2=CCCCC2)cc1	10.5%
O=S1(=O)CCC(NCC2CCCO2)C1 (centres unmarked)	4.98%
CSc1ccccc1OCc1cc(C(=O)N2CCC(Oc3cccnc3)CC2)no1	-37.4%
CC(OC(=O)c1ccc(Br)o1)C(=O)Nc1ccc2c(c1)OCCO2 (centres unmarked)	-11.1%
CC(=O)N/N=C(\C)c1ccc2c(c1)OCCO2	11%
COC(=O)CSc1nc(C2CC2)cc(C(F)(F)F)c1C#N	-3.56%
Cc1ccc(-c2c(C(=O)N3CCOCC3)oc(=O)c3ccccc23)cc1	-17.8%
Cc1ccc(S(=O)(=O)N(C)CC(=O)Nc2ccncc2)cc1	-8.2%
CCCn1c(SCC(=O)Nc2ccccc2N2CCCCC2)nc2c1c(=O)n(C)c(=O)n2C	-29.9%
COc1ccc(-c2cc(C(F)F)n3ncc(C(=O)NCCCN4CCCC4=O)c3n2)cc1	-40.5%
O=S(=O)(NCc1ccco1)c1cccc(S(=O)(=O)N2CCOCC2)c1	-21.7%
O=c1[nH]c(C2CCN(S(=O)(=O)c3ccccc3C(F)(F)F)CC2)nc2c1nnn2Cc1cccc(F)c1	3.83%
CCn1c(COc2ccccc2)nnc1SCC(=O)NC1CCCCC1	9.54%
COc1cc(/C=N/NC(=O)c2cc[n+]([O-])cc2)ccc1O	21.8%
CCN(C(=O)C(C)OC(=O)CCCNC(=O)c1ccc(Cl)cc1)c1ccccc1 (centres unmarked)	-25.1%
